Results from PubChem BioAssay.
The shares of active, inactive and inconclusive entries below differ from those in the screen. Calls of active or inactive are those of the source.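 Rule for the calls: active = viability at or below 30% in both replicate assays; inconclusive = viability at or below 30% in just one of the two assays; inactive = the rest.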

experiment: HUVEC growth inhibition – cell-based, human, primary screen (AID 575); conditions: HUVEC proliferation, CellTiter-Glo luminescence, 72 h; at 10 µM; active compounds read low;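 note: 100% = median of untreated cell wells with 0.1% DMSO on each plate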
Summary of the method: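 Test system: primary human umbilical vein endothelial cells; medium: endothelial basal medium with 2% FBS plus growth supplements; dosing: 10 µM compound only; times: 72 h treatment at 37 °C; signal: CTG luminescence; read-out: % viability relative to median vehicle-well signal on each plate; control set: vehicle and MePR control wells; plate: 384-well, collagen-coated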

Compound | viability
CCc1ccc(C2CC(c3ccccc3)n3ncnc3N2)cc1 (centres undefined) | inactive: 83.1%
COc1cc2c(C#N)c(N3CCN(c4ccccc4OC)CC3)nc(N)c2c(N)n1 | inconclusive: 19.3%
ON=C1/C(=N\O)CC2(C/C1=N/O)OCCO2 | inconclusive: 47.2%
Cn1c(Cl)cnc1C1CC(=O)c2cc(Cl)ccc2O1 (centres undefined) | active: 15.5%
Cc1ccc(-c2nnc3c4ccccc4c(C)nn23)cc1S(=O)(=O)N1CCN(C)CC1 | inactive: 78.6%
O=C(CCCN1CCC(O)(c2ccc(Cl)cc2)CC1)c1ccc(F)cc1 | inconclusive: 31.1%
CC(C)(C)NC(=O)COC(=O)c1snc(C(=O)NC2CCCCC2)c1N | inactive: 51.9%
CCc1oc2ccccc2c1C(=O)c1cc(Br)c(O)c(Br)c1 | inconclusive: 30.3%
COc1ccccc1NC(=O)NCCCN1CCN(c2cccc(Cl)c2)CC1 | inconclusive: 37.8%
CCCCn1c(SCC(=O)Nc2cc(C)on2)nnc1-c1cccnc1 | inactive: 87.8%
O=C(NC1CCCCC1)C(c1ccccc1)N(Cc1ccco1)C(=O)Cn1cnc2ccccc21 (centres undefined) | inconclusive: 49.2%
N#Cc1ccccc1Cn1c(=O)n(Cc2ccc(C(=O)NCc3ccco3)cc2)c(=O)c2ccccc21 | inconclusive: 27.3%
COC(=O)c1ccccc1NC(=O)Cn1c(-c2nonc2N)nc2ccccc21 | inconclusive: 27.6%
Oc1ccc(N2CCN(C(c3ccncc3)c3nnnn3C3CCCC3)CC2)cc1 (centres undefined) | inconclusive: 44.6%
C[N+]1=C2CCCCCN2C(O)(c2ccccc2)C1 (centres undefined) | inactive: 101%
O=C(Nc1ccc(S(=O)(=O)N2CCCCCC2)cc1)c1ccco1 | inconclusive: 39.2%
Cc1ccc(Nc2cc(C)nc3ncnn23)c(Cl)c1 | inactive: 87%
Cn1c(NCc2cccc(Br)c2)nc2ccccc21 | inactive: 83.7%
O=C(O)/C=C/c1ccc(O)c(O)c1 | inactive: 69%
CCOC(=O)CSc1nc(C)c(C(=O)OCC)s1 | inactive: 105%

Compound | viability
COc1ccc(C)cc1NC(=O)CCC(=O)Nc1ccc2nc(N3CCN(C)CC3)cc(C)c2c1 | inconclusive: 21.5%
CCCCCC#CCC#CCC#CCC#CCCCC(=O)O | inactive: 66.2%
CC(C)Cn1c(N)c(C(=O)COC(=O)c2cc(-c3ccco3)nc3ccccc23)c(=O)n(C)c1=O | inactive: 66.8%
O=C(NCCN1C(=O)C2C3C=CC(C3)C2C1=O)Nc1ccccn1 (centres undefined) | inconclusive: 43.8%
COc1ccc(Cl)cc1C(=O)NCCc1ccc(S(=O)(=O)NC(=O)NC2CCCCC2)cc1 | inconclusive: 46.6%
CCOC(=O)COc1ccc(S(=O)(=O)N2CCc3ccccc3C2)cc1 | active: 9.96%
O=C(O)c1cc(O)c2c(c1)C(=O)c1cccc(O)c1C2=O | inconclusive: 22.5%
O=C(NC1CCCCC1)c1nc2c(nnn2Cc2ccccc2Cl)c(=O)[nH]1 | inactive: 104%
CCOc1ccc2nc(NC(=O)CSc3nc4ccccc4c(=O)n3Cc3ccco3)sc2c1 | inconclusive: 28.6%
Oc1ccccc1-c1cc(C(F)(F)C(F)F)[nH]n1 | inconclusive: 39.2%
Cc1ccc(C)c2[nH]c(=O)c(CN(CCN3CCCC3)C(=O)Nc3cccc(Cl)c3)cc12 | active: 15.6%
Nc1nc(N2CCN(C/C=C/c3ccccc3)CC2)nc2ccccc12 | inconclusive: 40.6%
c1ccc(CN2CCN(c3ncnc4c3[nH]c3ccccc34)CC2)cc1 | inconclusive: 31.5%
CCCN(CCC)S(=O)(=O)c1ccc(C(=O)Nc2nnc(-c3cccc(OC)c3)o2)cc1 | active: 8.23%
Cc1ccc(C(C)C)c(OCCCN2CC(C)OC(C)C2)c1 (centres undefined) | inactive: 101%
CC(C)C(c1nnnn1C1CCCC1)N1CCCc2ccccc21 (centres undefined) | inactive: 80.3%
Cc1ccc(S(=O)(=O)N(C)c2ccc(OCC(=O)OCc3c(C)noc3C)cc2)cc1 | inactive: 95.4%
CCOCCCNC(=O)Cn1cc2c(n1)CCCCC2 | inactive: 109%
CCn1nc(C(=O)O)c(=O)c2cc3c(cc21)OCO3 | inactive: 86.7%
